What all share (conditions): 20 mM HEPES pH 7.9, 100 mM NaCl, 1 mM DTT, 0.2 mg/mL BSA, 0.02% Triton X-100, 2% milk, 0.4 mg/mL salmon testes DNA; 1 h; temperature not stated; high values mean tight binding; double strand, one strand shown; sequences stand for … in GCCTAGCAC…GTGCTAGGTCTTGATTCGCTTGACGCTGCTG
In one test the target is PU.1 (IVT) (UniProt P17947). Kind of test: protein-binding microarray (PBM).
The target of test [1] is PU.1 (endogenous, THP-1 nuclear extract) (UniProt P17947). Description: nuclear extract protein-binding microarray (nextPBM).
Test [2] addresses T1, FLI1 (endogenous, THP-1 nuclear extract) (UniProt Q01543).
T1 sequence: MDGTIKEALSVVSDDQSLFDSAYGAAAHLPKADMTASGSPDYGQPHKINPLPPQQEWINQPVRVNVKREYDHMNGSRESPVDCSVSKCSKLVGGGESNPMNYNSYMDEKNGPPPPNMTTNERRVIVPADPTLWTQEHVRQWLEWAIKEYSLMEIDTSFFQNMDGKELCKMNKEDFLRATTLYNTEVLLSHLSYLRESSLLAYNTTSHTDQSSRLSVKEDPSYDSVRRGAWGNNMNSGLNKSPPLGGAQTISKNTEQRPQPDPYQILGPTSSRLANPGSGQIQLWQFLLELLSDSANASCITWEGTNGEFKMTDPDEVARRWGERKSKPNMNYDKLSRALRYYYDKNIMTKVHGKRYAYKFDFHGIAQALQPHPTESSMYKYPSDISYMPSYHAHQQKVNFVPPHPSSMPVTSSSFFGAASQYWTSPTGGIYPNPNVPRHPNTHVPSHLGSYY
The description is as above.

The record followed here is publication PMC6451091.

This is one part of the list. For part of these data: At the low end of the ranking, values are background and their order means little. For part of these data: The protein was read in a cell extract, so binding may be indirect.

Consider AGAAAAGGGAAGTGTTAAAT, for which the binding signal in the test with PU.1 (IVT) stood at 6.48 z-score; in test [1] it was 6.41 z-score; in test [2] it was 2.54 z-score.

Turning to GAAATAGGGAAGTGAGACAG, the binding signal is 6.59 z-score with PU.1 (IVT), 6.88 z-score in test [1] and 2.48 z-score in test [2].

With GAAAAGAGGATGTGAACTTT, the values for the binding signal (with PU.1 (IVT); in test [1]; in test [2]) were 3.86 z-score, 4.14 z-score and 2.07 z-score, respectively.

On to AGATTGTGGAAGTACTGTGA, for which the binding signal with PU.1 (IVT) came to 2.73 z-score; in test [1], 2.71 z-score; in test [2] it was 1.41 z-score.

In the case of AAGAAGAGGAAGAGAGACCT, the binding signal was 2.71 z-score with PU.1 (IVT), 2.85 z-score in test [1] and 0.832 z-score in test [2].

For the sequence TGGCAGGGGAAGTGCTTTGC, the binding signal turned out to be 3.19 z-score with PU.1 (IVT), 3.04 z-score in test [1] and 1.72 z-score in test [2].

As for CAAATGAGGAACTGATACGG, the binding signal amounted to 5.99 z-score with PU.1 (IVT), 6.56 z-score in test [1] and 1.83 z-score in test [2].

Regarding GAAAACAGGACGTCCCATAG, the results for the binding signal (with PU.1 (IVT); in test [1]; in test [2]) were 0.758 z-score, 0.451 z-score and 0.961 z-score, respectively.

Take CAAAACAGGAAGTGATGTTC: the binding signal in the test with PU.1 (IVT) turned out to be 7.97 z-score; in test [1], 7.52 z-score; in test [2] it was 5.73 z-score.

GGAAGGGGGAAGTGGTGCAG: the binding signal with PU.1 (IVT) was 4.41 z-score; in test [1], 4.69 z-score; in test [2], 1.94 z-score.

Regarding GCAGACAGGAAGTGGGAATT, the binding signal was 2.96 z-score with PU.1 (IVT), 3.05 z-score in test [1] and 5.58 z-score in test [2].

With CGTGAGGGGAAGTGACTGAA, the binding signal came out at 3.77 z-score with PU.1 (IVT), 4.18 z-score in test [1] and 2.27 z-score in test [2].

In the case of AGGAAGTGGAAGTGGGGCAT, the binding signal amounted to 2.38 z-score in the test with PU.1 (IVT), 2.73 z-score in test [1] and 5.08 z-score in test [2].

Turning to GGTGACAGGAAGTCCTGGGG, the binding signal in the test with PU.1 (IVT) was 2.33 z-score; in test [1] it was 2.5 z-score; in test [2], 4.23 z-score.

Consider GAAAGAGGGAAGTGGGCATA, for which the binding signal with PU.1 (IVT) came out at 4.48 z-score; in test [1], 5.03 z-score; in test [2], 1.92 z-score.

Take AAAAAAAGGTACTGGCTAGA: the binding signal in the test with PU.1 (IVT) is 0.305 z-score; in test [1] it was 0.133 z-score; in test [2], -0.319 z-score.

In the case of AAAAACAGGAAGTCACCTCA, the binding signal with PU.1 (IVT) is 7.82 z-score; in test [1] it was 7.15 z-score; in test [2] it was 5.21 z-score.

As to TAGATGAGGAAGTACTGTGC, the binding signal in the test with PU.1 (IVT) is 6.57 z-score; in test [1] it was 6.46 z-score; in test [2], 2.79 z-score.

Regarding TAGGAGAGGAACTGGAGTGA, the values for the binding signal (in the test with PU.1 (IVT); in test [1]; in test [2]) were 2.05 z-score, 2.08 z-score and 0.803 z-score, respectively.

Regarding AAATTAGGGAAGTGTAACCA, the binding signal in the test with PU.1 (IVT) turned out to be 6.06 z-score; in test [1], 6.35 z-score; in test [2], 2.17 z-score.

On to GCCAGGAGGAAGTGGCAACT, for which the binding signal in the test with PU.1 (IVT) is 3.62 z-score; in test [1], 4.15 z-score; in test [2], 2.51 z-score.

As for TAAAAGGGGAAGTCAGACAT, the values for the binding signal (with PU.1 (IVT); in test [1]; in test [2]) were 7.25 z-score, 7.31 z-score and 3.24 z-score, respectively.

Consider TGCAAGGGGAAGTGGTTTTG, for which the binding signal is 5.08 z-score with PU.1 (IVT), 5.24 z-score in test [1] and 2.5 z-score in test [2].

Turning to AAAAAAAGGAACGGGCTAGA, the figures for the binding signal (with PU.1 (IVT); in test [1]; in test [2]) were 1.48 z-score, 1.25 z-score and 0.244 z-score, respectively.

On to TTGAAAAGGAAGTGGGCGAG, for which the binding signal with PU.1 (IVT) stood at 2.66 z-score; in test [1], 2.46 z-score; in test [2], 2.47 z-score.

AAATAAAGGAAGTGAAAAAC: the results for the binding signal (with PU.1 (IVT); in test [1]; in test [2]) were 4.97 z-score, 4.99 z-score and 2.56 z-score, respectively.

With GGAATCAGGAAGTGAAAAGA, the figures for the binding signal (in the test with PU.1 (IVT); in test [1]; in test [2]) were 4.96 z-score, 5.81 z-score and 3.25 z-score, respectively.

For the sequence GTCTTGAGGAAGTGCTGAGC, the binding signal is 3.67 z-score with PU.1 (IVT), 3.77 z-score in test [1] and 1.9 z-score in test [2].

In the case of CAACAAGGGAAGTGGATGCT, the binding signal with PU.1 (IVT) was 1.94 z-score; in test [1], 2.19 z-score; in test [2], 1.56 z-score.

For GATGAAGGGAAGTGGAGAAA, the binding signal in the test with PU.1 (IVT) was found to be 2.6 z-score; in test [1], 2.43 z-score; in test [2] it was 1.57 z-score.

As for GAAATGAGGAAGTGTGGCTG, the values for the binding signal (with PU.1 (IVT); in test [1]; in test [2]) were 7.89 z-score, 7.29 z-score and 3.48 z-score, respectively.

On to TGAGAGAGGAAGTGCAACCA, for which the binding signal with PU.1 (IVT) was found to be 4.26 z-score; in test [1], 4.51 z-score; in test [2], 3.08 z-score.

On to TTGGTCAGGAAGTGTCAGAG, for which the binding signal with PU.1 (IVT) came to 0.801 z-score; in test [1], 1.06 z-score; in test [2], 2.89 z-score.

Regarding GAAAAGAGGAAGTGAAGTTA, the figures for the binding signal (with PU.1 (IVT); in test [1]; in test [2]) were 8.28 z-score, 7.39 z-score and 4.42 z-score, respectively.

Consider ACAAACGGGAAGTACTGTGT, for which the binding signal with PU.1 (IVT) was 6.15 z-score; in test [1], 6.15 z-score; in test [2], 3.07 z-score.

For AAGAAGAGGAAGTCTATAGC, the binding signal is 5.83 z-score in the test with PU.1 (IVT), 5.88 z-score in test [1] and 2.71 z-score in test [2].

On to AAGAAGAGGAACTCTTAGAG, for which the binding signal stood at 3.83 z-score in the test with PU.1 (IVT), 3.99 z-score in test [1] and 1.53 z-score in test [2].

On to TTAATCAGGAACTGTACAAT, for which the binding signal in the test with PU.1 (IVT) stood at 1.47 z-score; in test [1], 1.46 z-score; in test [2] it was 1.14 z-score.

For the sequence GAAAAAAGGAAGTCCCATAG, the binding signal with PU.1 (IVT) was 5.66 z-score; in test [1], 5.85 z-score; in test [2], 2.43 z-score.

For the sequence ACAAAAAGGAACTGTCCCCC, the binding signal with PU.1 (IVT) was found to be 2.45 z-score; in test [1], 1.66 z-score; in test [2], 1.19 z-score.

Take ATTTAGAGGAACTGGGCTTG: the results for the binding signal (with PU.1 (IVT); in test [1]; in test [2]) were 2.86 z-score, 3.08 z-score and 0.878 z-score, respectively.

As for CATAAGAGGAAGTGGCAGTT, the binding signal with PU.1 (IVT) was 6.2 z-score; in test [1], 6.33 z-score; in test [2], 3.23 z-score.

Consider CTGAAGGGGAAGTGGTACTT, for which the binding signal with PU.1 (IVT) was 4.45 z-score; in test [1], 5.32 z-score; in test [2], 2.38 z-score.

Regarding TAAATGAGGAACTGATGCGG, the binding signal with PU.1 (IVT) was 6.09 z-score; in test [1], 6.21 z-score; in test [2], 1.29 z-score.

With AAAAAAAGGAACTGGGTAGA, the binding signal in the test with PU.1 (IVT) is 4.33 z-score; in test [1], 4.14 z-score; in test [2], 1.1 z-score.

For TAGATGAGGAAGTGGAAGCA, the binding signal with PU.1 (IVT) worked out at 5.67 z-score; in test [1] it was 6.06 z-score; in test [2], 3.01 z-score.

As to GAAATGAGGAACTGATGCGG, the binding signal in the test with PU.1 (IVT) was found to be 6.62 z-score; in test [1], 6.33 z-score; in test [2], 2.49 z-score.

With CAAATGAGGAACTGATGCTG, the binding signal turned out to be 5.63 z-score in the test with PU.1 (IVT), 6.42 z-score in test [1] and 2.08 z-score in test [2].

Turning to CCAAGGGGGAAGTGAATGTT, the binding signal with PU.1 (IVT) is 4.49 z-score; in test [1] it was 4.47 z-score; in test [2], 2.34 z-score.

On to AAAAAGAGGAACTGTTGGAG, for which the binding signal with PU.1 (IVT) was determined as 7.21 z-score; in test [1] it was 7.09 z-score; in test [2], 3.35 z-score.

AAGAAGAGGAACTCCTTCCA: the binding signal in the test with PU.1 (IVT) is 4.39 z-score; in test [1] it was 4.59 z-score; in test [2], 1.65 z-score.

Regarding AGAACAAGGAAGTGCTCTAT, the results for the binding signal (with PU.1 (IVT); in test [1]; in test [2]) were 4.41 z-score, 4.71 z-score and 2.4 z-score, respectively.

For ACAAAAAGGAACTGTGCTCC, the binding signal was determined as 2.3 z-score with PU.1 (IVT), 1.75 z-score in test [1] and 0.84 z-score in test [2].

For GGGGAGAGGAAGTGGCCTTT, the binding signal is 4.25 z-score with PU.1 (IVT), 4.45 z-score in test [1] and 3.13 z-score in test [2].

As to TCAAAGCAGAAGTGATAGCT, the binding signal with PU.1 (IVT) was 2.8 z-score; in test [1] it was 2.9 z-score; in test [2] it was 0.596 z-score.

On to CAAGAAGGGAAGTGGATGCT, for which the binding signal worked out at 3.18 z-score with PU.1 (IVT), 3.23 z-score in test [1] and 1.66 z-score in test [2].

Take TTAAAGGGGAAGTGAACTCT: the binding signal with PU.1 (IVT) stood at 6.68 z-score; in test [1], 6.98 z-score; in test [2] it was 3.23 z-score.
